Reference: PubChem BioAssay AID1345082 (National Center for Advancing Translational Sciences (NCATS), 2018)
Out of some 94,000 compounds screened, about 4,000 (4.3%) were called active. The shares of active, inactive and inconclusive entries below differ from those in the screen. Calls come from the whole dose curve; as a rule, active = well fitted inhibition curve with a large enough effect; inconclusive = small, poorly fitted or top-dose-only effect; inactive = no such curve, though single readings can be large or run the other way. A potency beside an inconclusive call is a rough fit, not a confirmed value.

Assay: Cytotoxic Profiling in NIH 3T3 Cell Line of Diverse Libraries Using Quantitative High-Throughput Screening; note: nearly all actives have a fitted effect of over 55% in size
Settings: NIH 3T3 viability, CellTiter-Glo ATP luminescence, 48-72 h; series mostly up to 96.7 µM
Summary of the method: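 Luminescent ATP readout (CellTiter-Glo, 10 min RT) after 48 or 72 hr compound exposure of NIH 3T3 cells seeded at 400 cells/well in 1536-well format; quantitative HTS.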
Potency is the fitted concentration of half-maximal effect; tags give direction and shape of the fitted curve.

SMILES	Potency
O=C1N(c2ccccc2)c2ccccc2C12CCN(Cc1ccc(F)cc1)C2 (stereo not given)	inconclusive: 50.1 µM [inhibitor, partial curve, poor fit]
O=C(Nc1cccc(Br)c1)C1CCN(c2cc(C(F)(F)F)ncn2)CC1	inconclusive: 12.6 µM [inhibitor, full curve]
CN1CCC(OC2CCN(C(=O)c3cccc(Br)c3)CC2)CC1	inactive
CCC(O)c1cc2n(n1)CCN(c1ncc(F)c(N3CCOCC3)n1)C2 (stereo not given)	inconclusive: 50.1 µM [inhibitor, partial curve, poor fit]
O=C1COc2ccc(OCc3cncs3)nc2CN1Cc1ccccc1	inconclusive: 56.2 µM [inhibitor, partial curve, poor fit]
COc1ccc2nc(C[C@@H]3C[C@@H](C(C)C)[C@H](CNC(=O)Nc4ccc(F)cc4)C=C3C)[nH]c2c1	active: 39.8 µM
COc1ccc(CN2CC(C(C)(C)C)Oc3nc(C)ccc3C2=O)cc1 (stereo not given)	inconclusive: 31.6 µM [inhibitor, partial curve, poor fit]
CC(=O)N1C[C@H](NC(=O)c2cccc(C)c2Cl)[C@@H](C(C)C)C1	inactive
COCCN1C(=O)N(Cc2cccc3ccccc23)C(=O)C12CCN(Cc1cn(C)nc1C)CC2	inactive
COc1ccc(F)cc1-c1ccc(CN2CCC(NC(=O)NC(C)C)C2)cc1 (stereo not given)	inconclusive: 44.7 µM [inhibitor, partial curve, poor fit]
Cc1ccccc1C(=O)N[C@H]1[C@H](O)[C@H](O)C[C@@H]1c1ccccc1C	inactive
COc1cccc(-c2nc(N3CCOCC3)cc3c2CN(Cc2ccccc2)C3=O)c1OC	inactive
CCn1c(CO)nnc1C1CC(NC(=O)c2cnn3cc(C)cnc23)C1 (stereo not given)	inactive
CSc1ccc(-c2cccc(CN3CCC(NC(=O)N(C)C)CC3)c2)cc1	inconclusive: 50.1 µM [inhibitor, partial curve, poor fit]
Fc1ccc(-c2cc(CC3(NCc4cccc5c4OCO5)COC3)no2)cc1	inconclusive: 89.1 µM [inhibitor, partial curve, poor fit]
Cc1ccc(CNC(=O)N2CCC(Oc3ccc(-c4noc(C)n4)cc3)C2)cc1 (stereo not given)	inconclusive: 44.7 µM [inhibitor, partial curve, poor fit]
O=C(c1cncc(Br)c1)N1CCCN(c2ccnc3ccnn23)CC1	inconclusive: 35.5 µM [inhibitor, partial curve]
Cc1ccc(OCCN2CCC3(CC2)C(C(=O)O)CC(=O)N3C)c(C)c1 (stereo not given)	inconclusive: 56.2 µM [inhibitor, partial curve, poor fit]
O=C(c1ccc(Cl)cc1)N1CC(c2nnc(-c3ccncc3)o2)C2(CCOCC2)C1 (stereo not given)	inactive
O=C1CC2CCN(Cc3nc4ccccc4s3)CC2CCN1 (stereo not given)	inactive
COCCCNC(=O)N1C[C@@H]2CCCN3CCC[C@@H]([C@H]23)[C@H]1CCCC(=O)Nc1ccccc1	inactive
COc1ccc(CNC(=O)c2noc(-c3ccc(F)cc3)n2)c(OC)c1	inconclusive: 70.8 µM [inhibitor, single point]

SMILES	Potency
Cc1cc(C(=O)NCC23CCCC=C2NC(=O)CC3)n(C)n1 (stereo not given)	inactive
Cc1ccc(-c2cccc(CN3CCCC(NC(=O)c4ccncc4)C3)c2)cc1Cl (stereo not given)	inconclusive: 50.1 µM [inhibitor, partial curve, poor fit]
O=C(NCCN1CCNC1=O)c1cnc2n1CCN(Cc1cccnc1)CC2	inactive
COC(=O)N(C)Cc1cccc(N2CCN(S(=O)(=O)c3cccc4ccccc34)CC2)c1F	inconclusive: 12.6 µM [inhibitor, full curve, poor fit]
CCOC(=O)[C@H]1C[C@@H]2O[C@H]1[C@H]1CN(C(=O)OC)C[C@H]1[C@@H]2O	inconclusive: 79.4 µM [inhibitor, partial curve, poor fit]
CCN1c2cc(C(=O)NC3CCCCC3)ccc2C(=O)N2CCCCC21 (stereo not given)	inconclusive: 63.1 µM [inhibitor, partial curve, poor fit]
CN(Cc1cccnc1)c1nc2c(c(=O)[nH]1)CCN(Cc1ccc(F)cc1F)CC2	inconclusive: 44.7 µM [inhibitor, partial curve, poor fit]
CN(C)C[C@H]1O[C@H](Cc2cc(CN(C)Cc3ccccc3)on2)CC[C@@H]1O	inconclusive: 126 µM [inhibitor, single point]
CC(C)(C)c1ccc(C(=O)N2CCC3(C2)NC(=O)N(Cc2ccc(Cl)cc2)C3=O)cc1 (stereo not given)	inconclusive: 44.7 µM [inhibitor, partial curve, poor fit]
CCOc1ccc(N(CC)C(=O)c2ccc3c(c2)N(S(C)(=O)=O)CC3)cc1	inconclusive: 35.5 µM [inhibitor, partial curve]
CNC(=O)c1cc(C)nc2onc(C3CCCN3C(=O)Cc3ccccn3)c12 (stereo not given)	inactive
COc1ccc2c(C)c(C(=O)N3CCCCC3c3cc(C)on3)oc2c1 (stereo not given)	inconclusive: 56.2 µM [inhibitor, partial curve, poor fit]
CCCCN(C)C(=O)c1csc(N2CCN(c3ccccc3)CC2)n1	inconclusive: 44.7 µM [inhibitor, partial curve, poor fit]
COc1ccc(C(=O)NC2CCN(c3ccnc4ccnn34)C2)cc1 (stereo not given)	inconclusive: 5.01 µM [inhibitor, full curve, poor fit]
Cc1ccc(CN2C(=O)[C@@H]3C[C@@H](O)CN3C3(CN(Cc4cccs4)C3)C2=O)o1	inactive
COc1cccc(Nc2csc(CN3CCCC(C)(NC(C)=O)C3)c2)c1 (stereo not given)	inconclusive: 89.1 µM [inhibitor, partial curve, poor fit]
COc1ccc(-c2noc(-c3cccn3CC(=O)N3CCN(c4ccc(F)cc4)CC3)n2)cc1F	inactive
COc1ccccc1Nc1ccnc(N2CCCC(C(=O)NCC(F)F)C2)n1 (stereo not given)	inconclusive: 44.7 µM [inhibitor, partial curve, poor fit]
O=C1N(c2ccccc2)c2ccccc2C12CCN(Cc1ccsc1)C2 (stereo not given)	inconclusive: 56.2 µM [inhibitor, partial curve, poor fit]
O=C(C[C@@H]1CCNC[C@@H]1Cc1cc(-c2ccc(F)cc2)on1)NCCN1CCOCC1	inactive
O=C(NCCc1ccccc1F)c1cc(Br)cn2ccnc12	inconclusive: 44.7 µM [inhibitor, partial curve, poor fit]
NC[C@H]1O[C@H](Cc2cc(-c3ccc(F)cc3)on2)CC[C@@H]1O	inactive

SMILES	Potency
CC(C)CCN1CCC(N2CCN(C(=O)c3ccc(C(F)(F)F)cc3)CC2)C1=O (stereo not given)	inactive
CN(C)c1cccc(C(=O)NC2CCN(c3cc(-c4ccccc4)[nH]n3)CC2)c1	inconclusive: 44.7 µM [inhibitor, partial curve, poor fit]
CCOc1ccccc1C1NC(=O)N(CC(=O)Nc2cccc(OC)c2)C2=C1C(=O)OC2 (stereo not given)	inactive
COc1ccccc1-c1ccc(C(=O)N2CCC(C(=O)N3CCN(Cc4ccccc4)CC3)CC2)cc1	inconclusive: 50.1 µM [inhibitor, partial curve, poor fit]
O[C@H]1[C@H](NCc2ccco2)[C@H]2CO[C@H](O2)[C@@H]1N1CCC(Cc2ccccc2)CC1	inconclusive: 89.1 µM [inhibitor, partial curve, poor fit]
O=C(NCc1ccccc1)C1CCCN(Cc2cccc(-c3cccs3)c2)C1 (stereo not given)	active: 31.6 µM
Cc1cccc(N(C)c2ccc3nnc(-c4cc(C(=O)N(C)C)ccn4)n3n2)c1	inconclusive: 56.2 µM [inhibitor, partial curve, poor fit]
Cc1noc(C)c1S(=O)(=O)N1C[C@@H](F)C[C@H]1C(=O)N1CCc2ccccc2C1	inconclusive: 3.55 µM [inhibitor, partial curve, poor fit]
Cc1ccccc1-c1nc2cc3c(cc2cc1CN1CCC[C@H]1CO)OCO3	inactive
CCC(=O)N1Cc2ccccc2CC2(CCCN(Cc3ccc(O)cc3)C2)C1 (stereo not given)	inactive
COc1cccc(C(=O)N2CCC(C(NC(=O)CC(C)C)C(=O)NCC(C)C)CC2)c1 (stereo not given)	inconclusive: 70.8 µM [inhibitor, single point]
NCC(=O)N1CCCC2(Cc3ccccc3CN2C(=O)Cc2cccc(Cl)c2)C1 (stereo not given)	inconclusive: 50.1 µM [inhibitor, partial curve, poor fit]
O=S(=O)(NCC1CCOCC1)c1cccnc1	inactive
CC(C)(C)c1ccnc(N[C@H]2CO[C@H]3[C@@H]2OC[C@@H]3NC(=O)NCc2ccccc2)n1	inconclusive: 79.4 µM [inhibitor, partial curve]
c1csc(CN2CCC(Oc3ccccc3-c3nc(-c4cnccn4)no3)C2)c1 (stereo not given)	inconclusive: 50.1 µM [inhibitor, partial curve, poor fit]
CC(=O)Nc1cccc(C(=O)NCc2ccccc2-n2ccnc2C)c1	inactive
CCOc1cc(C(=O)NC2CCN(c3cc(-c4ccc(OC)cc4)[nH]n3)C2)cc(OCC)c1OCC (stereo not given)	active: 22.4 µM
CNC(=O)[C@H]1C[C@H](Oc2ccccc2)CN1S(=O)(=O)c1cccc(OC)c1	inactive
Cn1nccc1-c1cccc(-c2nc(N3CCOCC3)n(C)n2)c1	inconclusive: 22.4 µM [inhibitor, partial curve]
CC(NC(=O)c1noc(-c2ccc3c(c2)OCO3)n1)c1ccccc1 (stereo not given)	inconclusive: 44.7 µM [inhibitor, partial curve, poor fit]
O=C(Nc1cccnc1)c1cnc2n1CCN(Cc1ccccc1)CC2	inconclusive: 100 µM [inhibitor, single point]
